# According to PubChem BioAssay AID445 (National Center for Advancing Translational Sciences (NCATS), 2006):
# The whole screen tested about 110,000 compounds, of which about 40 (0.04%) were called active. Inconclusive means that the source gave no clear call. Such entries were picked first, then a sample of the others. The call rests on the fitted dose curve; in most records, active means well fitted curve in the direction sought with a large enough effect in the signal ratio (not every such curve was filed as active); inconclusive means small, poorly fitted or top-dose-only effect, or a change in a side signal; inactive means flat fitted curve, though single readings scatter; the % refers to the signal ratio. Potencies of inconclusive entries are doubtful fits and often do not repeat.
# Experiment: IkB Signaling;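 on IkBa stabilization activation: 0% = basal untreated cells and 100% = reference inhibitor full response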
# Conditions: ABC-DLBCL IkBa-CBG/CBR dual luciferase ratio (green luciferase fused to IkBa over red control in OCI-Ly3 lymphoma cells), 4 h; IkBa stabilization activation: at 57.1 µM (top of the series), scaled: untreated 0%, proteasome inhibitor 100% unless noted
# Procedure, shortened: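 Luminescence ratio of IκBα-fused green versus native red beetle luciferase in OCI-Ly3 cells, 4 h post-doxycycline with compound; red signal alone, scaled from basal (0%) to zero light (-100%), flagged nonspecific or cytotoxic effects.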
# Potency means the concentration at half of the fitted maximal effect.
Structure (SMILES),IkBa stabilization activation,Potency
CCc1ccc(NC(=O)NCCc2c(C)nn(C)c2C)cc1,inactive: -0.0462%,
CCOc1ccccc1CNC(=O)c1ccc(CS(=O)Cc2cccc(Cl)c2)o1 (centres undefined),inconclusive: 1.06% [signal inhibitor],
COc1cccc(C2CC(=O)Nc3c2ccc(C)c3C)c1OC (centres undefined),inconclusive: 1.68% [signal inhibitor],
CSc1ccc(C2C(C(=O)Nc3ccccc3)=C(C)Nc3nc4ccccc4n32)cc1 (centres undefined),inconclusive: -0.781% [signal inhibitor],
CSc1ccc(CNC(=O)Cn2nc(N3CCN(c4ccccc4)CC3)ccc2=O)cc1,inconclusive: 1.32% [signal inhibitor],
COc1cccc(NC(=O)CSc2nnc(-c3cccc(OC)c3)o2)c1,inconclusive: 7.89% [signal inhibitor],
Cc1ccc(NC(=O)CSc2ncc(-c3ccccc3)[nH]2)cc1,inconclusive: 14.3% [signal inhibitor],
O=C(CSc1nc2c([nH]c3ccccc32)c(=O)n1-c1ccc(F)cc1)N1CCc2ccccc21,inactive: -1.48%,
COc1cccc(C(=O)N2CCCCC2CCN2CCCCC2)c1 (centres undefined),inactive: -0.161%,
COc1ccc(OC)c(NC(=O)c2cccc3c2C(=O)N(C2CCCCC2)C3)c1,inconclusive: 7.44% [signal inhibitor],
O=C(Nc1ccc2c(c1)OCCO2)c1ccccc1F,inconclusive: 10.4% [signal inhibitor],
O=S(=O)(c1ccc(F)cc1)N(CC(O)Cn1c2ccccc2c2ccccc21)c1ccccc1 (centres undefined),inconclusive: 5.73% [signal inhibitor],
COc1ccc(C)cc1Nc1cc(C)nc2ncnn12,inactive: 3.93%,
CCOc1ccc(CCNC(=O)c2nnc(Cc3ccc(Cl)cc3Cl)o2)cc1OCC,inconclusive: -0.657% [signal inhibitor],
CCOC(=O)c1cc2c(=O)n3ccccc3nc2n(CC2CCCO2)c1=NC(=O)c1ccccc1C (centres undefined),inactive: 0.73%,
CCn1cc(/C=C(\NC(=O)c2ccc(C)cc2)C(=O)NCCCn2ccnc2)c2ccccc21,inactive: 1.56%,
CCOc1ccc2nc(N3CCN(C(=O)c4ccco4)CC3)sc2c1,inconclusive: -3.02% [signal inhibitor],
COc1ccc(CNC(=O)C2CCCN(S(=O)(=O)c3ccc4c(ccn4C)c3)C2)c(OC)c1 (centres undefined),inconclusive: 1.22% [signal inhibitor],
Cc1ncn(-c2ccccc2O)c1C,"inactive: 0.709% [at 11.4 µM, scaled: untreated 0%, proteasome inhibitor 100%]",
O=c1c2cc3c(cc2nc2sc(Nc4ccccc4)nn12)OCO3,inactive: -0.614%,
Cc1ccc(-n2ncc(C(=O)NCCN3CCc4ccccc4C3)c2C2CCN(C(=O)OC(C)(C)C)CC2)cc1C,inconclusive: -4.6% [signal inhibitor],
COc1ccc(S(=O)(=O)c2c(Nc3cccc(C)c3C)sc(C(=O)c3ccccc3)c2N)cc1,inactive: 0.619%,
COc1ccc(-c2nc(SCC(=O)NC(C)CCc3ccccc3)n[nH]2)cc1 (centres undefined),inconclusive: 1.96% [signal inhibitor],
CCSCCOC(=O)C1=C(C)N(C)C(=O)NC1c1cc(OC)ccc1OC (centres undefined),inactive: -3.49%,
CCOC(=O)c1c(C)oc2nc(C)nc(NCCc3ccc(OCC)c(OCC)c3)c12,inconclusive: 0.695% [signal inhibitor],

Structure (SMILES),IkBa stabilization activation,Potency
COc1ccc(N2CCN(c3ncnc4c3cnn4-c3ccc(F)cc3)CC2)cc1,inconclusive: 1.93% [signal inhibitor],
COC(=O)c1ccc(NC(=O)CSc2cn(CC(=O)N3CCCCC3)c3ccccc23)cc1,inconclusive: 2.27% [signal inhibitor],
CCOC(=O)C1=C(C)OC(N)=C(C#N)C1c1cc2c(cc1Br)OCO2 (centres undefined),inactive: 2.48%,
CN1CCc2c(sc(/N=C/c3ccco3)c2C(N)=O)C1,inactive: 1.05%,
COc1ccc(CNS(=O)(=O)c2cc3c(cc2Cl)N(C(C)=O)CCO3)cc1,inconclusive: -0.0731% [signal inhibitor],
Cc1ccc(Nc2cc(C(=O)NCCc3ccccc3)c3ccccc3n2)c(C)c1,inconclusive: -2.49% [signal inhibitor],
COCCSc1ccccc1C(=O)NCCCn1ccnc1,inactive: 0.531%,
COc1ccc(NC(=O)CSc2nc(-c3cc(OC)c(OC)c(OC)c3)[nH]c2-c2ccc(F)cc2)cc1,inconclusive: 1.28% [signal inhibitor],
CCCCC(=O)Nc1c(C(=O)N2CCN(c3ccccc3F)CC2)oc2ccccc12,inactive: -0.872%,
Cc1ccccc1Cn1c(COc2ccc(Cl)cc2)nc2ccccc21,inconclusive: 2.87% [signal inhibitor],
COc1ccc(CNC(=O)C2CCN(c3nnc(-n4c(C)ccc4C)s3)CC2)c(OC)c1,inconclusive: 3.21% [signal inhibitor],
O=C(Nc1cccc(F)c1)C1CCCN(S(=O)(=O)c2cccc3cccnc23)C1 (centres undefined),inconclusive: 0.552% [signal inhibitor],
CCCCN(C)CCCNC(=O)C1CCN(S(=O)(=O)CCC)CC1,inconclusive: 2.05% [signal inhibitor],
CCOC(=O)c1c(NC(=O)c2cccs2)sc2c1CCCC2,inactive: 1.47%,
COCCCN1C(=O)C(=O)/C(=C(/O)c2ccc(OC(C)C)cc2)C1c1ccncc1 (centres undefined),inactive: 1.9%,
Cn1c(NC(=O)c2cc(-c3ccc4c(c3)OCO4)nc3ccccc23)cc(=O)n(C)c1=O,inactive: 0.473%,
CC(C)Cc1cc(-c2ccco2)c(C#N)c(N)n1,inactive: -1.18%,
CCN(CC)C(=O)c1c[nH]c2ccc(S(=O)(=O)Nc3cc(C)cc(C)c3)cc2c1=O,inactive: -0.146%,
COc1ccccc1-n1c(N)c(C(N)=O)sc1=S,inactive: -0.747%,
COCCNc1nc2c(c(=O)n(C)c(=O)n2C)n1Cc1c(F)cccc1Cl,inconclusive: 7.79% [signal inhibitor],
CCCn1c(SCC(=O)Nc2nc(C)c(C(=O)OC)s2)nnc1C(C)C,inactive: -1.35%,
Cc1oc(-c2cccc(Cl)c2)nc1CN1CCC(C(=O)NC(C)c2ccccc2)CC1 (centres undefined),inconclusive: -0.998% [signal inhibitor],
COc1ccc(Cl)cc1NC(=O)CSc1cn(CC(=O)N2CCCCC2)c2ccccc12,inconclusive: 1.65% [signal inhibitor],
CCCN(C(=O)c1cn(C)c(=O)c2cc(OC)c(OC)cc12)c1ccc(CC)cc1,inactive: -1.65%,
CCOCCc1nn2c(=O)cc(COC(=O)c3ccc(NC(=O)C4CCCCC4)cc3)nc2s1,inconclusive: 2.8% [signal inhibitor],

Structure (SMILES),IkBa stabilization activation,Potency
COc1ccccc1CNc1nc2ccc(C)cc2n2nnnc12,inconclusive: 6.45% [signal inhibitor],
Cc1nn(-c2ccccc2)c(OC(=O)c2ccccc2Br)c1S(=O)(=O)c1ccccc1,inconclusive: -0.554% [signal inhibitor],
Cc1noc(C)c1S(=O)(=O)N1CCCC(C(=O)Nc2cccnc2)C1 (centres undefined),inactive: -0.386%,
O=C1CC(c2c(Cl)cccc2Cl)c2c(ccc3ccccc23)N1 (centres undefined),,"inconclusive: 39.8 µM [signal inhibitor, single point]"
CCN1C(=O)CC(N2CCN(c3ccc(Cl)cc3)CC2)C1=O (centres undefined),inactive: 5.06%,
Cc1ccc(C2=N/C(=C/N3CCOCC3)C(=O)O2)cc1,inactive: 0.861%,
Cc1ccccc1OCC(=O)Nc1c(C(=O)Nc2ccccc2F)oc2ccccc12,inactive: -0.867%,
C[C@@H](C[C@H](N)C(=O)O)C(=O)O,"inactive: -0.558% [at 11.4 µM, scaled: untreated 0%, proteasome inhibitor 100%]",
CCOc1ccc(NC(=O)N2CC3CCCN3c3ccccc32)cc1 (centres undefined),inconclusive: 1.39% [signal inhibitor],
CC(=O)NNc1ncnc2c1cnn2-c1ccccc1,inconclusive: -0.147% [signal inhibitor],
COC(=O)c1c(C#N)c(N)nc2c1CCCC2,inactive: -2.33%,
COC(=O)c1ccc(CCc2cc(O)ccc2O)cc1,"inconclusive: 16.5% [signal activator] [at 11.4 µM, scaled: untreated 0%, proteasome inhibitor 100%]",
Cc1nn(-c2ccccc2)c(C)c1C(=O)Nc1nnc(-c2ccco2)o1,,"inconclusive: 31.6 µM [rising, single point]"
COC(=O)c1cnc(N2CCN(c3ccc(OC)cc3)CC2)c2ccccc12,inconclusive: 5.26% [signal inhibitor],
Cc1ccccc1NS(=O)(=O)c1ccc2[nH]cc(C(=O)NCCc3ccccc3)c(=O)c2c1,inconclusive: -6% [signal inhibitor],
Cc1cccc(-c2nc(CN3CCCC(C(=O)NC4CCCC4)C3)c(C)o2)c1 (centres undefined),inconclusive: 1.39% [signal inhibitor],
COc1ccc(-c2ccc(-c3noc(C)n3)c(OC)n2)cc1,inactive: -2.28%,
Cc1cccc2sc(NC(=O)CCNS(=O)(=O)c3cccc4nonc34)nc12,inconclusive: 2.75% [signal inhibitor],
Cc1ccc(-c2onc(C)c2C)cc1S(=O)(=O)N1CCN(c2ccccc2F)CC1,inconclusive: 2.93%,
COc1cc(OC)c(NC(=O)Nc2ccc3c(c2)N(C)C(=O)c2ccccc2S3)cc1Cl,inconclusive: 2.05% [signal inhibitor],
CCCCC(CC)CO (centres undefined),inactive: -0.508%,
CCn1c2ccccc2c2cc(CN3CCN(Cc4cccc(Cl)c4)CC3)ccc21,inconclusive: 15% [signal inhibitor],
COC(=O)c1ccccc1NC(=O)CCCn1nc(C)c2c(C)n(-c3ccccc3)nc2c1=O,inconclusive: 1.43% [signal inhibitor],
Cc1ccc(CNC(=O)c2cc(-c3ccc(C)c(C)c3)nc3ccccc23)cc1,inconclusive: 0.318% [signal inhibitor],
